{"source": "paper PMC6212790", "note": "The other results are listed elsewhere or left out. At the low end of the ranking, values are background and their order means little."}
{"biological_target": "T1, GST-Rok (full length) (UniProt O34857)", "T1 sequence": "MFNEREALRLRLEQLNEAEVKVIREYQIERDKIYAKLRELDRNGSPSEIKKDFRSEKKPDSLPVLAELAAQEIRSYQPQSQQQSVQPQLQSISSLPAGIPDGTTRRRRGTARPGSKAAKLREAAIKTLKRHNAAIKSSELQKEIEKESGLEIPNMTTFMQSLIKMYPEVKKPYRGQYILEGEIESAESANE", "assay": "protein binding microarray;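 also: rank score from −0.5 (least bound) to 0.5 (best bound)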", "details": "Rok is a gene silencer of Bacillus subtilis; high values mean tight binding; most listed sequences are background and not binding sites; double strand, one strand shown", "units": {"binding signal": "E-score"}}
{"sequence": "AGAGACGG", "binding signal": -0.259}
{"sequence": "GAAGTTAC", "binding signal": 0.161}
{"sequence": "GTCGAGAC", "binding signal": -0.279}
{"sequence": "CTTCTAGC", "binding signal": 0.19}
{"sequence": "ACTAGAAA", "binding signal": 0.344}
{"sequence": "CAGTGAGC", "binding signal": -0.236}
{"sequence": "ACTGAGAC", "binding signal": -0.113}
{"sequence": "CGGCTAAG", "binding signal": -0.0584}
{"sequence": "ATGACTGA", "binding signal": -0.00523}
{"sequence": "CTACCCCC", "binding signal": -0.201}
{"sequence": "GATTTCCC", "binding signal": 0.0194}
{"sequence": "CATGTGCG", "binding signal": -0.127}
{"sequence": "AATCTATA", "binding signal": 0.384}
{"sequence": "ACGTAATA", "binding signal": 0.3}
{"sequence": "CCGGCTAC", "binding signal": -0.0888}
{"sequence": "GAAACCCA", "binding signal": -0.125}
{"sequence": "ATGTAAGA", "binding signal": 0.118}
{"sequence": "GATAAGCA", "binding signal": 0.159}
{"sequence": "CCCTGGCC", "binding signal": -0.399}
{"sequence": "GCACAAAA", "binding signal": 0.186}
{"sequence": "GACCTAAC", "binding signal": 0.0674}
{"sequence": "AAACAACG", "binding signal": 0.0649}
{"sequence": "GCTGGTTA", "binding signal": 0.189}
{"sequence": "ATCCGCGC", "binding signal": -0.0881}
{"sequence": "TCGCATAA", "binding signal": 0.093}
{"sequence": "AGGCTAGG", "binding signal": -0.114}
{"sequence": "AGCCGCCC", "binding signal": -0.278}
{"sequence": "CGGTAGAG", "binding signal": 0.0632}
{"sequence": "ACTTAAAG", "binding signal": -0.164}
{"sequence": "ACGACATA", "binding signal": 0.137}
{"sequence": "GTATACGA", "binding signal": 0.179}
{"sequence": "AGCGTCCT", "binding signal": -0.316}
{"sequence": "CTTATGGA", "binding signal": -0.0622}
{"sequence": "AAAGTTTA", "binding signal": -0.00448}
{"sequence": "AATTTTAG", "binding signal": 0.222}
{"sequence": "GCTTTAAC", "binding signal": -0.15}
{"sequence": "ATTAGCGA", "binding signal": 0.0888}
{"sequence": "CAGTTTAA", "binding signal": 0.0735}
{"sequence": "GGTGCTGA", "binding signal": -0.101}
{"sequence": "AGGTGGAC", "binding signal": -0.266}
{"sequence": "CCGTTTAA", "binding signal": -0.0159}
{"sequence": "CCGCCCGG", "binding signal": -0.388}
{"sequence": "GGTGTACA", "binding signal": 0.0307}
{"sequence": "ACATGAGG", "binding signal": -0.207}
{"sequence": "GATGAGGC", "binding signal": -0.228}
{"sequence": "CAGTCTTA", "binding signal": 0.158}
{"sequence": "AGCAGTGA", "binding signal": 0.0135}
{"sequence": "CATTTTGA", "binding signal": 0.185}
{"sequence": "AAGATACA", "binding signal": 0.186}
{"sequence": "CCAAGCAA", "binding signal": 0.0204}
{"sequence": "GGAGCACC", "binding signal": -0.252}
{"sequence": "CTGTGCAA", "binding signal": 0.0148}
{"sequence": "ACCATAAG", "binding signal": 0.172}
{"sequence": "AGTTTCGG", "binding signal": 0.147}
{"sequence": "AGAAGAAA", "binding signal": -0.121}
{"sequence": "CTCAAGCC", "binding signal": -0.146}
{"sequence": "CAATCCTC", "binding signal": -0.0929}
{"sequence": "GGAGGTCA", "binding signal": -0.359}
{"sequence": "TCAGTTCA", "binding signal": -0.0671}
{"sequence": "CGTGAGAC", "binding signal": -0.125}
{"sequence": "AATAAATG", "binding signal": 0.295}
{"sequence": "ACTGTCGG", "binding signal": -0.0251}
{"sequence": "CCGTTGAG", "binding signal": -0.0934}
{"sequence": "AGATGCTC", "binding signal": -0.129}
{"sequence": "CTAGGCCA", "binding signal": -0.176}
{"sequence": "AGCTGGGC", "binding signal": -0.312}
{"sequence": "ATTCTCAA", "binding signal": 0.0615}
{"sequence": "AGACAGGA", "binding signal": -0.136}
{"sequence": "ACACATAG", "binding signal": 0.184}
{"sequence": "ATCAATGG", "binding signal": 0.0191}
{"sequence": "ACAAAGGA", "binding signal": -0.106}
{"sequence": "AAGCAACA", "binding signal": -0.00135}
{"sequence": "TGTCAAAA", "binding signal": -0.0181}
{"sequence": "GCTTGCCC", "binding signal": -0.316}
{"sequence": "AGGTGGGG", "binding signal": -0.461}
{"sequence": "ACACCGGG", "binding signal": -0.333}
{"sequence": "CTGACTTA", "binding signal": 0.127}
{"sequence": "CCTCAAAC", "binding signal": -0.161}
{"sequence": "CGGCCACC", "binding signal": -0.242}
{"sequence": "GGTTCTCA", "binding signal": -0.09}
{"sequence": "ATTGAGCG", "binding signal": -0.126}
{"sequence": "CGCCGATA", "binding signal": 0.205}
{"sequence": "CCCCCGAG", "binding signal": -0.409}
{"sequence": "CAAGAGTC", "binding signal": -0.0869}
{"sequence": "ACTACCAT", "binding signal": 0.352}
{"sequence": "GGCTGATA", "binding signal": -0.0429}
{"sequence": "ACATGGAA", "binding signal": 0.163}
{"sequence": "ATCTAGTG", "binding signal": 0.307}
{"sequence": "CACTTATC", "binding signal": 0.23}
{"sequence": "CTATAAAA", "binding signal": 0.23}
{"sequence": "CGCTTTAG", "binding signal": -0.0872}
{"sequence": "GAATTCGC", "binding signal": 0.0821}
{"sequence": "ACCCTTCA", "binding signal": -0.24}
{"sequence": "AATGTTGG", "binding signal": 0.137}
{"sequence": "CCTCTTCG", "binding signal": -0.295}
{"sequence": "CAGAATCC", "binding signal": -0.107}
{"sequence": "ACGTGCAA", "binding signal": 0.055}
{"sequence": "CCCATAGA", "binding signal": -0.0828}
{"sequence": "GATACGTA", "binding signal": 0.245}
{"sequence": "AACCGTAC", "binding signal": 0.0539}
{"sequence": "CCATTAGA", "binding signal": 0.0381}
{"sequence": "AAGAAGTG", "binding signal": 0.147}
{"sequence": "TTCGCGAA", "binding signal": 0.0408}
{"sequence": "TCTTCTCA", "binding signal": 0.009}
{"sequence": "ACTGCTTA", "binding signal": 0.21}
{"sequence": "ACTGTTAG", "binding signal": 0.196}
{"sequence": "ACAGATCT", "binding signal": 0.124}
{"sequence": "ACAGCATA", "binding signal": 0.0549}
{"sequence": "CATACCCC", "binding signal": -0.0589}
{"sequence": "CCTGTAAC", "binding signal": 0.0187}
